Laboratory results taken from the supplement of paper PMC5895741.

B1: MS2 coat protein; the commonest letter at each place (parent)
chain: MASNFTQFVLVDNGGTGDVTVAPSNFANGVAEWISSNSRSQAYKVTCSVRQSSAQNRKYTIKVEVPKVATQTVGGVELPVAAWRSYLNMELTIPIFATNSDCELIVKAMQGLLKDGNPIPSAIAANSGIY

Variants of: B1
Test: apparent fitness score (VLP assembly selection enrichment vs plasmid library) (log10 ratio); higher = better expression / assembly into well-formed VLPs
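Further: counts from Illumina MiSeq reads, cDNA of packaged RNA versus plasmid DNA taken before selection, each replicate independent from library construction onward, expression induced with 0.1% arabinose.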

Variant | apparent fitness score (log10)
M89R | -1.08
F8V | -0.383
E103A | 0.739
E103G | 0.679
E103L | 0.491
I129K | < -4
P23I | -1.32
P23T | -1.74
P23F | -1.66
Y43N | < -4
I123Y | < -4
S48G | -1.02
S24H | -1.63
V80A | 0.0418
S121T | 0.515
T20K | 1.01
P94S | -1.68
Q110M | -0.304
C47W | -0.369
C47M | 0.647
C47P | -1.09
K67Y | -1.56
K67F | -1.87
N56V | < -4
K114I | -0.223

Variant | apparent fitness score (log10)
K114M | < -4
I95N | 0.21
I95C | -0.573
W33K | -1.54
W33L | -0.201
T72R | 0.0912
S38V | -0.88
S38H | < -4
V76L | 0.0989
V76Q | < -4
A124K | 0.146
A124P | < -4
G74P | -0.701
G74W | 0.0363
N126D | -0.896
N25T | -1.49
N25Y | < -4
N25F | < -4
N37V | -0.846
L87E | -0.728
T46F | < -4
A81S | 0.516
D101R | -1.23
D101E | -0.698
D101H | < -4

Variant | apparent fitness score (log10)
T6G | -0.0157
Y86G | -1.19
Y86T | -1.07
S40T | -1.24
S40G | -1.59
G14I | < -4
T92Q | 0.52
K44A | -0.637
K107I | < -4
C102R | -0.798
P66W | < -4
V68F | 0.262
V68G | 0.339
V68Q | -0.014
G128T | -0.838
V9M | 0.449
V9A | 0.0863
L91T | -0.979
V63S | 0.481
S52A | 0.714
S52I | 0.3
G116M | -1.17
Q51N | 0.675
G111C | -0.628
R39Q | < -4

Variant | apparent fitness score (log10)
R39G | -0.766
I105C | -0.522
I105T | -0.0906
G17C | 0.259
G17V | -1.02
G15V | -0.81
G15Y | < -4
G15E | -0.567
N88F | -0.292
V21G | -1.72
V21T | < -4
A122R | -1.46
F96N | < -4
F96Y | 0.636
D115R | 0.476
A27N | < -4
N28A | < -4
Q71F | -0.0785
S127T | -0.817
L104I | 0.557
L104Y | 0.45
L10A | < -4
L10I | < -4
S53I | < -4
A22V | -0.799

Variant | apparent fitness score (log10)
A22T | 0.0558
S100P | 0.724
S100Q | 0.446
S100W | -0.943
V49W | -0.512
V49T | 0.635
L112H | < -4
G75D | -1.13
I93M | -0.698
I93Y | < -4
I93D | -0.936
A31R | < -4
S3N | -0.786
S3R | 0.509
S3L | < -4
A125E | < -4
W83T | -1.26
Q7D | 0.871
R84I | < -4
D18T | -0.909
D12V | -0.389
T70W | 0.0576
I61C | -0.604
